PubChem BioAssay AID360 (National Center for Advancing Translational Sciences (NCATS), 2006)
The whole screen tested about 48,000 compounds, of which about 550 (1.1%) were called active. Not shown: some 4% with an inconclusive outcome. No stated cut-off is given here; in the data, active means potency below about 15 µM; inconclusive means mostly about 16 µM to 33 µM; inactive means weaker than that. Some of the results follow.

Target: Lysosomal acid glucosylceramidase (Homo sapiens) (UniProt P04062)
Experiment: Glucocerebrosidase;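 further: the screen sought inhibitors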
Settings: purified enzyme, resorufin glucoside fluorescence (screen aimed at inhibitors), 20 min
Outline: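 Compounds titrated against 0.2 nM normal enzyme, 30 uM resorufin beta-D-glucopyranoside substrate, citrate/phosphate buffer with taurocholate and tween-20, pH 5.9. Reaction ran 20 min at room temperature; fluorescence (Ex 548/Em 600) gave AC50.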
Potency means the concentration at half of the fitted maximal effect.

Chain of UniProt P04062 (P04062 whole entry, looked up): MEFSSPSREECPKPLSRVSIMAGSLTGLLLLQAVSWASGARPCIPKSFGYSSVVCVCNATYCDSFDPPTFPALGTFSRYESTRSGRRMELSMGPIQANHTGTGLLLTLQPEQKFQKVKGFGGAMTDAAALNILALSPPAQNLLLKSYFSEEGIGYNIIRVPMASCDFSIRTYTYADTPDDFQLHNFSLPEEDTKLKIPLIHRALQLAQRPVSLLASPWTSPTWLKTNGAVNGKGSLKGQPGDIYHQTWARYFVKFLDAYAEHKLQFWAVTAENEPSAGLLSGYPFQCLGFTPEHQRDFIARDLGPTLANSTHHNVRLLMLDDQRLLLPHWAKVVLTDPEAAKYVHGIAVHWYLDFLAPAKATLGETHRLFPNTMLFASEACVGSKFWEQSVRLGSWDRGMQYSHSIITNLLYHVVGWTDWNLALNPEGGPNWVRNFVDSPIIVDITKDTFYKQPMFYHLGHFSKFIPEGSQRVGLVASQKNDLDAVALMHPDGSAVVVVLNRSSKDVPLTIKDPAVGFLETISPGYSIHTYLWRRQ

Potency, inactive:
CCC(=O)c1cn(CC(=O)NCc2cccnc2)c2ccccc12 > 76.9 µM
O=C1CCCc2c1[nH]c1ccccc21 > 76.9 µM
CCn1c(SCC(=O)NCc2ccc3c(c2)OCO3)nnc1-c1c[nH]c2ccccc12 > 76.9 µM
CC1CN(S(=O)(=O)c2cccc(-c3cn4cccnc4n3)c2)CC(C)O1 (configuration not stated) > 76.9 µM
CN(C)CCCOC(=O)CCc1ccccc1 > 76.9 µM
CC(=O)C1=C(C)Nc2ncnn2C1c1ccccc1Cl (configuration not stated) > 76.9 µM
CC(=O)Nc1c(C(=O)O)[nH]c2ccccc12 > 76.9 µM
C=CCn1c(=O)c2ccccc2n2c(SCC(=O)Nc3cc(C)on3)nnc12 > 76.9 µM
CC(C)n1c(SC2CCOC2=O)nc2ccccc21 (configuration not stated) > 76.9 µM
CCOc1cc(C2C(C#N)=C(N)Oc3n[nH]c(-c4ccccc4)c32)ccc1O (configuration not stated) > 76.9 µM
Cc1noc(NS(=O)(=O)c2ccc(N3CC(O)=C(c4ccccc4)C3=N)cc2)c1C > 76.9 µM
COCCn1c(C)c(C(=O)O)sc1=S > 76.9 µM
Cn1c(=O)c2c(ncn2CC(=O)N2CCN(c3ccccc3)CC2)n(C)c1=O > 76.9 µM
CC(=O)N1CCc2ccc(C(=O)CN3CCN(c4cccc(C)c4C)CC3)cc21 > 76.9 µM
CC1(C)Cc2nc3sc4c(SCC(=O)NCc5ccco5)ncnc4c3cc2CO1 > 76.9 µM
Cc1cccc(C2c3c(n(C)c(=O)n(C)c3=O)N=C3c4ccccc4C(=O)C32)c1 (configuration not stated) > 76.9 µM
CCCCn1c2c(c(=N)c3c1CCC3)CCC2 > 76.9 µM
CN1C(=O)CC(N2CCC(C(N)=O)(N3CCCCC3)CC2)C1=O (configuration not stated) > 76.9 µM
CCOC(=O)C(C)Oc1ccc(=O)n(-c2ccccc2)n1 (configuration not stated) > 76.9 µM
Cc1nnc(NC(=O)NC(C)N2C(=O)C3C4C=CC(C4)C3C2=O)s1 (configuration not stated) > 76.9 µM
Cc1cc(=O)oc2cc(OCc3nnc(-c4ccccc4Br)o3)ccc12 > 76.9 µM
CCCCN1c2ccccc2N(CCCO)c2cc(C)nnc21 > 76.9 µM
COCCN1C(=O)c2ccccc2C(C(=O)NCCCN2CCCC2)C1c1c[nH]c2ccccc12 (configuration not stated) > 76.9 µM
COCc1nnc(NS(=O)(=O)c2ccc(C)cc2)s1 > 76.9 µM
CN(C)CCCNCCCNC(=O)c1ccncc1 > 76.9 µM
CCOC(=O)C(NC(C)=O)(Nc1cccc(F)c1)C(F)(F)F (configuration not stated) > 76.9 µM
CN(C)c1ccc(N/C=C/C(=O)c2ccc(F)cc2)cc1 > 76.9 µM
Cc1nc(N2CCN(c3ccccc3)CC2)nc2c1C(=O)CC(C)C2 (configuration not stated) > 15.4 µM
COc1ccc(OC)c(S(=O)(=O)N(C)CC(=O)O)c1 > 76.9 µM
Cc1ccc(C(=O)Nc2ccc(S(=O)(=O)N3CCc4ccccc43)cc2)o1 > 76.9 µM
COC(=O)Cn1c2ccc(F)cc2c2nc(C)sc21 > 76.9 µM
CCOc1cc(C(=O)Nc2ccccc2N2CCN(S(C)(=O)=O)CC2)cc(OCC)c1OCC > 76.9 µM
COCCn1c(C)cc(C(=O)CSc2ncn[nH]2)c1C > 76.9 µM
COc1ccc(OC)c2[nH]c(=O)c(CCNC(=O)COc3ccccc3)cc12 > 76.9 µM
CC1Cc2ccccc2N1C(=O)c1ccc2c(c1)nnn2C (configuration not stated) > 76.9 µM
CCS(=O)(=O)NCCCCc1ccccc1 > 76.9 µM
O=C(O)C1CCN(c2nc(-c3ccccc3)nc3c2oc2ccccc23)CC1
COC(=O)CSc1ncnc2c1cnn2Cc1ccccc1 > 76.9 µM
CNC(=O)C1CC(=O)N(Cc2ccc3c(c2)OCO3)C(=Nc2ccc(OC)cc2)S1 (configuration not stated) > 76.9 µM
CCn1c(=O)cc(SCC(=O)NCCN2CCN(Cc3ccccc3)CC2)c2ccccc21 > 76.9 µM
COc1ccc(NCc2nnc(SCC(=O)c3ccc(OC)cc3)n2C)cc1 > 76.9 µM
O=C(O)CCCNCc1ccccc1F > 76.9 µM
COc1ccccc1N1CCN(C(=O)c2ccc(CS(=O)(=O)c3ccccc3OC)o2)CC1 > 76.9 µM
CCOC(=O)N1CCN(C(=O)COc2cc(=O)n(CC)c3ccccc23)CC1 > 76.9 µM
O=C(CC(C(=O)O)N1CCOCC1)Nc1ccc(Cl)cc1 (configuration not stated) > 76.9 µM
CCOC(=O)C1CCN(S(=O)(=O)c2ccc(NC(=O)OC)cc2)CC1 > 76.9 µM
Cn1c(-c2ccccc2)cc2c3no[n+]([O-])c3ccc21 > 76.9 µM
CCOC(=O)N1CCN(C(=O)CN(Cc2ccccc2)S(=O)(=O)c2ccc(OC)c(C)c2)CC1 > 76.9 µM
Cc1cc(C)nc(NS(=O)(=O)c2cccs2)c1 > 76.9 µM
COC(=O)Cc1cc(=O)[nH]c(/N=C(/NC(=O)c2ccccc2)Nc2ccccc2C)n1 > 76.9 µM
Cc1ccnc(NC(=O)CCCOc2cc(=O)n(C)c3ccccc23)c1 > 76.9 µM
CCNc1nc(Oc2ccc(=O)[nH]n2)nc(SC)n1 > 76.9 µM
O=C(Nc1cccnc1)C1(F)C(F)(F)C(F)(F)C(F)(F)C(F)(F)C1(F)F
COc1ccccc1NC(=O)CNC(=O)c1ccccc1 > 76.9 µM
COC(=O)c1cn(NC(=O)C2COc3ccccc3O2)c(=O)c2ccccc12 (configuration not stated) > 76.9 µM
COc1ccc(-n2c(=O)c3ccccc3n(CC(=O)NC3CCCC3)c2=O)c(OC)c1 > 76.9 µM
O=C(NCC1CCCO1)c1nc2c(nnn2Cc2ccc(F)cc2)c(=O)[nH]1 (configuration not stated) > 76.9 µM
N#Cc1c(-c2ccco2)nc(SCc2ccc(F)cc2)[nH]c1=O > 76.9 µM
Nc1nc(-c2cccnc2)nc(N2CCCCC2)n1 > 76.9 µM
CCc1nnc(NC(=O)C2CCCN2S(=O)(=O)c2ccc(F)cc2)s1 (configuration not stated) > 76.9 µM
O=C(CSc1nc2c(c(=O)n1-c1ccc(Br)cc1)SCC2)NCc1ccco1 > 76.9 µM
COCCn1c(SCC(=O)N2CCCC2)nnc1C(C)C > 76.9 µM
O=C(CN1CCN(c2ccccc2)CC1)Nc1cccc(C(F)(F)F)c1 > 76.9 µM
O=C(O)c1cscn1 > 76.9 µM
CCOC(=O)Cn1ncc2c(=O)oc3ccccc3c21 > 76.9 µM
Cc1cnc(C(=O)OCC(=O)Nc2cc(Cl)cc(Cl)c2)cn1 > 76.9 µM
CCOC(=O)c1cc(NC(=O)NCc2ccco2)c(C)nc1C > 76.9 µM
Cc1ccc(C(=O)N2CCN(C(=O)c3ccc(C)c(C)c3)C(C)C2)cc1C (configuration not stated) > 76.9 µM
CCN(CC)CCCNC1CCS(=O)(=O)C1 (configuration not stated) > 76.9 µM
CCCc1ccc(Oc2cn[nH]c2-c2ccc(O)c(C)c2O)cc1 > 76.9 µM
O=C1C(C=Nc2ccccc2O)=C(O)c2ccccc21 > 76.9 µM
O=C(CSc1nnc(CNC(=O)c2c(F)cccc2Cl)o1)c1ccccc1 > 76.9 µM
CSCC[C@H](NC(=O)OC(C)(C)C)c1nnc(SCC(N)=O)o1 > 76.9 µM
O=C(COC(=O)c1ccc[nH]c1=O)NCC1CCCO1 (configuration not stated) > 76.9 µM
CCOC(=O)c1nnn(-c2nonc2-n2cccc2)c1CN1CCCCC1
Cn1ncc(Cl)c1C(=O)N1CCc2ccccc21 > 76.9 µM
C=CCn1c(Cc2ccc(OC)cc2)nnc1SCc1nc2ccccc2c(=O)[nH]1 > 76.9 µM
N=c1c(S(=O)(=O)c2ccccc2)cc2c(=O)n3ccccc3nc2n1CC1CCCO1 (configuration not stated) > 76.9 µM
O=C(Nc1ccc2c(c1)CCC2)c1cnn2c1NC(c1ccco1)CC2C(F)(F)F (configuration not stated) > 76.9 µM
Cc1ccc(S(=O)(=O)Cn2nnnc2C(C(C)C)N2CCN(C(=O)c3ccco3)CC2)cc1 (configuration not stated)
CCCn1c(=O)c2ccccc2n2c(SCC(=O)c3cc(C)n(CCOC)c3C)nnc12 > 76.9 µM
CCN(Cc1ccccc1)C(c1cc2cc(C)ccc2[nH]c1=O)c1nnnn1CCOC (configuration not stated) > 76.9 µM
Cc1cc(C(=O)NCc2cccs2)cs1 > 76.9 µM
O=C(O)C1CC(=O)N(c2ccc(OCc3c(F)cccc3Cl)cc2)C1 (configuration not stated) > 76.9 µM
CCNc1c(N)c(=O)oc2ccccc12 > 76.9 µM
Cc1c(C(=O)N2CCCCC2)oc2ccc(S(=O)(=O)N3CC(C)CC(C)C3)cc12 (configuration not stated) > 76.9 µM
Cc1nc2ccccc2nc1OCC(=O)NCc1ccc2c(c1)OCO2 > 76.9 µM
COc1ccc(CCNC(=O)Cn2cnc3c(nnn3Cc3ccc(C)cc3)c2=O)cc1OC > 76.9 µM
CCOC(=O)c1ccc(CS(=O)c2ccc(Cl)cc2)o1 (configuration not stated) > 76.9 µM
COCCCn1c(CCC(=O)O)ccc1-c1ccc(F)cc1 > 76.9 µM
Clc1ccccc1OCCn1ccnc1 > 76.9 µM
Cc1ccc(/C(O)=C2\C(=O)C(=O)N(c3cc(C)on3)C2c2cccc(Br)c2)cc1 (configuration not stated) > 76.9 µM
